# Measured values from PubChem BioAssay AID2676 (National Center for Advancing Translational Sciences (NCATS), 2010).
# Screen size: about 370,000 compounds; about 1,100 (0.3%) were called active. The shares of active, inactive and inconclusive entries below differ from those in the screen. Calls follow the shape of the dose curve; as a rule, active = well fitted activation curve with a large enough effect; inconclusive = small, poorly fitted or top-dose-only effect; inactive = flat fitted curve, though single readings scatter. Potencies of inconclusive entries are doubtful fits and often do not repeat.
# Molecular target: Relaxin receptor 1 (Homo sapiens) (UniProt Q9HBX9)
# Chain of UniProt Q9HBX9 (Q9HBX9 whole entry, looked up): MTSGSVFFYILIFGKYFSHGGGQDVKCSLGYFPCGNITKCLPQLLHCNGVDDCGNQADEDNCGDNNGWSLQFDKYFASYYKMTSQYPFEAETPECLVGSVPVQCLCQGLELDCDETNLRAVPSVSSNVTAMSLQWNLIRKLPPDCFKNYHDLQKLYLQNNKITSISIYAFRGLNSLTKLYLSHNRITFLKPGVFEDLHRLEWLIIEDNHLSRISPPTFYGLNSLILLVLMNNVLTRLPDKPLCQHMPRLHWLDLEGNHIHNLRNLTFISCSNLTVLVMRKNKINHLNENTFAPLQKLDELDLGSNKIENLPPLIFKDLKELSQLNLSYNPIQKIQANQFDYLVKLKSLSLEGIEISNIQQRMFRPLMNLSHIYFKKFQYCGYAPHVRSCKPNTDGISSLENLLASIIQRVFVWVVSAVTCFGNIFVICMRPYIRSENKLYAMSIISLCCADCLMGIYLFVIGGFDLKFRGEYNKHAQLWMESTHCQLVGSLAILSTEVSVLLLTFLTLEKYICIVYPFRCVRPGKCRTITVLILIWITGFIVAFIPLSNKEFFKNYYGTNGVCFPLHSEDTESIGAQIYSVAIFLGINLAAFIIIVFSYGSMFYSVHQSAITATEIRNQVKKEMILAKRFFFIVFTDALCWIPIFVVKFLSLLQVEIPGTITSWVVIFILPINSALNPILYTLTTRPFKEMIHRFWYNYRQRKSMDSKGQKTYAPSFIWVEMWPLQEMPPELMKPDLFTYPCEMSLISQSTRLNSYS
# Assay: qHTS Assay for Agonists of the Relaxin Receptor RXFP1; also: nearly all actives have a fitted effect of over 60% in size
# Settings: HEK293T-RXFP1 cAMP TR-FRET, 30 min; series mostly up to 57.5 µM; activation: at the top concentration
# Description: NIH Chemical Genomics Center [NCGC] NIH Molecular Libraries Probe Production Centers Network [MLPCN] MLPCN Grant: R03 MH085705-01A1 Assay Submitter (PI): Alexander Agoulnik NCGC Assay Overview: The relaxin hormone is involved in the variety of biological functions in normal tissues and diseases. The role of relaxin is well-established in female reproduction and parturition, mammary gland and endometrial development, maintenance of myometrial quiescence during pregnancy. Relaxin signaling through its G protein-coupled receptor (GPCR) RXFP1 results in ECM remodeling through regulation of collagen deposition, cell invasiveness, proliferation and overall tissue homeostasis. […] Recombinant human relaxin (rhRlx) is currently being tested in clinical trials as a protective agent in congestive heart failure, in treating severe preeclampsia, and as an anti-fibrotic agent in systemic sclerosis. Upon relaxin binding RXFP1 activation leads to the activation of adenylate cyclase (AC) via Gs. cAMP will activate PKA, which phosphorylates many signaling proteins. Thus, detection of cAMP increase is an easy and reliable indication of relaxin receptor activation. To screen for agonists of the relaxin receptor, a HEK293T cell line stably transfected with RXFP1 was used. RXFP1 activation was assayed by changes in cAMP levels as detected with a time-resolved fluorescence energy transfer (TR-FRET) cAMP detection kit.
# NCGC Assay Protocol Summary: This is a cell-based assay for cAMP second messenger response to screen for agonists of the RXFP1 receptor. The assay was conducted in the presence of a PDE4 inhibitor (Ro 20174). The cells were lysed and the cAMP levels were measured with a TR-FRET cAMP kit. Presence of cAMP in the cell lysate disrupts binding between the cryptate-labeled anti-cAMP and d2-labeled cAMP pair, leading to a decrease in the TR-FRET signal. Data were normalized to the controls for basal activity (buffer only) and 100% activity (29 nM porcine relaxin). The EC50 values were determined from concentration-response data modeled with the standard Hill equation 1536-well assay protocol for the HEK293 RXFP1 cAMP assay: (1) Add 3 ul HEK293 RXFP1 cell culture. 2000 cells/well in DMEM/F12, 10% FBS, 1x Pen/Strep (dispensed offline with MultiDrop Combi). (2) Incubate 16-24 hr at 37C, 5% CO2. (3) Add 1 ul 400uM Ro20174 in DPBS, 0.05% BSA, 0.005% Tween 20. (3) Add 23 nl compounds in DMSO solution. Final concentration was 0.5 - 58 uM. (4) Incubate 30 min at 37C, 5% CO2. (5) Add 1 ul cAMP-d2 in lysis buffer (HTRF cAMP HiRange kit, CisBio). (6) Add 1 ul anti-cAMP antibody-cryptate in lysis buffer (HTRF cAMP HiRange kit, CisBio). (7) Incubate 30 min at room temperature. (6) Detect the assay plate in a ViewLux plate reader (PerkinElmer) with Ex=320 nm, Em1=615 nm and Em2=665 nm. Keywords: relaxin, RXFP1, RXFP2, G-protein coupled receptor, cAMP, agonist, high throughput screening, MLSMR, MLSCN, NIH Roadmap, qHTS and NCGC
# % is scaled to controls: 0 for no effect and ±100 for the full control effect; potency is read from the fitted curve at half-maximal effect; tags tell the direction and shape of the fitted curve.
SMILES,Potency,activation
CCOc1ccc(NC(=O)C2CCN(c3nnc(-n4c(C)ccc4C)s3)CC2)cc1,"inconclusive: 39.8 µM [activator, single point]",
COc1cc(OC)cc(-n2c(=O)c3sccc3n(Cc3c(C)cc(C)cc3C)c2=O)c1,"inconclusive: 20 µM [activator, partial curve]",
COc1cc(CC(NC(C)=O)C(=O)NC2CCN(c3nc(C)cc(C)c3C#N)CC2)cc(OC)c1 (stereo unspecified),"inconclusive: 31.6 µM [activator, single point]",
O=C(Nc1ccc2c(c1)OCCO2)C1CCCN(S(=O)(=O)c2cccs2)C1 (stereo unspecified),,inactive: -0.168%
OC[C@H]1O[C@@H](n2cnc3c(NC4CCCC4)nc(Cl)nc32)[C@H](O)[C@@H]1O,"inconclusive: 15.8 µM [activator, partial curve]",
COc1cc(/C=N/NC(=O)c2ccncc2)cc2c1OCO2,,inactive: 2.08%
Cc1nc(SCC(=O)Nc2cc(C)on2)c2c3c(sc2n1)CCCC3,"inconclusive: 25.1 µM [activator, single point]",
Cc1ccc(C(=O)C2=C(O)C(=O)N(Cc3cccnc3)C2c2ccc(Br)cc2)o1 (stereo unspecified),"inconclusive: 25.1 µM [activator, partial curve]",
COc1ccc(-c2cc3ccc(O)c(CN4CCOCC4)c3oc2=O)cc1OC,"inconclusive: 28.2 µM [activator, partial curve]",
Cc1nc2c(C(=O)NCCC3=CCCCC3)c[nH]n2c(=O)c1Cl,,inactive: -2.29%
CCCCN(CCCC)C(=O)c1cc2c(=O)n3cccc(C)c3nc2s1,"inconclusive: 22.4 µM [activator, partial curve]",
Cc1cc(C)cc(NS(=O)(=O)c2ccc3c(c2)c(=O)n(C)c(=O)n3C)c1,,inactive: 25.7%
CCn1c(=S)ccc2ccc(OC)cc21,"inconclusive: 25.1 µM [activator, partial curve]",
CCC(C)NC(=O)c1ccc(-n2c(=S)[nH]c3ccccc3c2=O)cc1 (stereo unspecified),,inactive: 3.8%
COc1ccccc1NC(=O)CSc1nc2ccccc2c(=O)n1C,,inactive: -1.49%
NS(=O)(=O)c1ccc(CCNC(=O)c2ccc3c(c2)N(Cc2ccccc2)CCS3)cc1,"inconclusive: 25.1 µM [activator, partial curve]",
Cc1ccc2nsnc2c1NC(=O)c1sc2ccccc2c1Cl,"inconclusive: 17.8 µM [activator, partial curve]",
Cc1nc(C)c(-c2ccc(SCC(=O)Nc3ccc(F)cc3F)nn2)s1,"inconclusive: 14.1 µM [activator, partial curve]",
Nc1c(C(=O)N/N=C/c2ccccc2Cl)oc2nc(-c3ccccc3)cc(-c3ccco3)c12,"inconclusive: 28.2 µM [activator, partial curve]",
COc1cc(C(=O)NCC(c2cccs2)S(=O)(=O)c2cccs2)cc(OC)c1OC (stereo unspecified),,inactive: -0.27%
Cc1cc(C)cc(NC(=O)Cn2nnc(C(=O)NCc3ccc(F)cc3)c2N)c1,,inactive: -0.943%
Cc1ccc(C(=O)c2cn(CC(=O)Nc3ccc(C)cc3Cl)c3nc(C)ccc3c2=O)cc1,"inconclusive: 39.8 µM [activator, single point]",
CCOC(=O)c1cc2c(=O)n3ccccc3nc2n(Cc2ccco2)c1=NC(=O)c1cccc(OC)c1,"inconclusive: 14.1 µM [activator, partial curve]",
CCOC(=O)C1CCN(C(=O)c2ccc(-n3ccc4ccccc43)s2)CC1,"inconclusive: 17.8 µM [activator, partial curve]",

SMILES,Potency,activation
Cc1cccc(-c2ccc3ncnc(N(C)Cc4ccco4)c3c2)c1,,inactive: 1.96%
Cc1ccc(C(=O)CSc2nc(-c3ccccc3)nc3c2CCCC3)cc1,,inactive: 5.97%
CCCCCCn1c(SCC(=O)c2c(N)n(C)c(=O)n(C)c2=O)nc2ccccc21,,inactive: 9.61%
Cc1ccc(C(=O)N2CCN(c3ccc(F)cc3)CC2)cc1S(=O)(=O)N1CCCCC1,,inactive: 0.85%
CC(C)c1nc(SCC(=O)NCC2CCCO2)c2c(=O)n(C)c(=O)n(C)c2n1 (stereo unspecified),"inconclusive: 3.16 µM [activator, partial curve]",
COc1ccc(-c2cc3c(=O)n(CC(=O)Nc4cccc(Cl)c4)ncn3n2)cc1,"inconclusive: 12.6 µM [activator, partial curve]",
c1ccc(-c2cc(-c3nnco3)c3ccccc3n2)nc1,"inconclusive: 35.5 µM [activator, single point]",
Cc1cc(NC(=O)CSc2nnc(-c3cccc(Cl)c3)o2)no1,,inactive: 6.52%
Cc1cc(C)c(NC(=O)Cn2cnc3c(oc4ccccc43)c2=O)c(C)c1,"inconclusive: 25.1 µM [activator, partial curve]",
CCOC(=O)N1CCN(Cc2ccccn2)CC1,,inactive: -0.169%
CCOC(=O)Cc1nnc2c(Nc3ccc(Cl)cc3)nc3nonc3n12,,inactive: 0.768%
COc1ccc(C(=O)NCCc2nnc3ccc(SCC(=O)N4CCOCC4)nn23)cc1,"inconclusive: 17.8 µM [activator, partial curve]",
CC(C)c1ccc(Nc2cc(C(=O)NC3CCCCC3)c3ccccc3n2)cc1,"inconclusive: 3.16 µM [activator, full curve]",
CCOC(=O)c1cnc2ccc(Br)cc2c1NCCCN1CCOCC1,"inconclusive: 22.4 µM [activator, partial curve]",
COCCSc1ccccc1C(=O)Nc1ccncc1,,inactive: -0.232%
Cc1ccc2oc3nc(C)c(C(=O)O)cc3c(=O)c2c1,,inactive: -1.09%
CCc1ccc(C(=O)c2cn(CC(=O)Nc3ccc4c(c3)OCO4)c3ccc(OC)cc3c2=O)cc1,"inconclusive: 39.8 µM [activator, single point]",
COc1cc2[nH]c(=S)nc(NCCC(C)C)c2cc1OC,"inconclusive: 22.4 µM [activator, partial curve]",
COc1ccc(-n2ncc3c(N4CCC(C(N)=O)CC4)ncnc32)cc1,"inconclusive: 25.1 µM [activator, partial curve]",
Cc1ccc(Cn2c(C(=O)NCc3ccccc3Cl)cc3sccc32)cc1,"inconclusive: 35.5 µM [activator, single point]",
N=c1c2c3c(sc2ncn1N)CCCC3,"inconclusive: 20 µM [activator, partial curve]",
COc1ccc(C)cc1NC(=O)NCc1ccc2c(c1)CCN2C(=O)c1ccccc1,,inactive: -0.0127%
Cc1cccc(NC(=O)CCCCCN2C(=O)c3ccccc3C2=O)n1,,inactive: 0.461%
Cc1ccc(CNS(=O)(=O)c2ccc(CN3C(=O)c4cccnc4C3=O)s2)o1,"inconclusive: 17.8 µM [activator, partial curve]",

SMILES,Potency,activation
O=C(NCc1nc2cccnc2n1Cc1ccc(F)cc1)c1ccccc1C(F)(F)F,,inactive: 1.13%
Cc1c(C(=O)Nc2ccncc2)sc2nc(-c3ccc(F)cc3)cn12,"inconclusive: 39.8 µM [activator, single point]",
COc1cc2ccccc2cc1C(=O)Nc1ccc(C)cn1,"inconclusive: 39.8 µM [activator, single point]",
COC(=O)c1cc(C)sc1NC(=O)C1CC=CCC1C(=O)O (stereo unspecified),"inconclusive: 15.8 µM [activator, partial curve]",
O=c1cc(COc2ccc(Cl)cc2Cl)nc2scc(-c3ccccc3)n12,"inconclusive: 28.2 µM [activator, single point]",
CC1CCCCN1S(=O)(=O)c1ccc(N(C(=O)c2cnccn2)C(C(=O)NC2CCCCC2)c2cccs2)cc1 (stereo unspecified),,inactive: 2.64%
CCOc1ccc(C2C(C#N)=C(N)SC(N)=C2C#N)c(OCC)c1,"inconclusive: 31.6 µM [activator, single point]",
Cc1c(Cl)cccc1Nc1nn2c(=O)c3ccccc3nc2s1,"inconclusive: 39.8 µM [activator, single point]",
COc1ccc2[nH]c(=O)c(COC(=O)c3cccs3)cc2c1,"inconclusive: 35.5 µM [activator, single point]",
CC(=O)Nc1nc2c(c3c1c(=O)oc1ccccc13)CC(C)CC2 (stereo unspecified),"inconclusive: 39.8 µM [activator, single point]",
O=C1CC(C(=O)Nc2ccc(Br)cc2)S/C(=N\N=C\c2ccco2)N1 (stereo unspecified),"inconclusive: 17.8 µM [activator, partial curve]",
CCOc1ccccc1N1CC(C(=O)Nc2ccc(C(=O)O)cc2)CC1=O (stereo unspecified),,inactive: 2.85%
COc1ccc(NC(=O)CCSc2nc(-c3ccc(OC)cc3)cc(C(F)(F)F)n2)cc1,"inconclusive: 28.2 µM [activator, single point]",
O=C(COc1ccc(F)cc1)OCc1cc(=O)n2nc(C3CCCCC3)sc2n1,"inconclusive: 39.8 µM [activator, single point]",
CCCC[n+]1ccn(-c2nc3ccccc3nc2[N-]S(=O)(=O)c2ccc(Cl)cc2)c1,"inconclusive: 39.8 µM [activator, single point]",
Cc1ccc(NC(=O)Cn2cc(C(=O)C3CC3)c3ccccc32)c(C)c1,"inconclusive: 39.8 µM [activator, single point]",
Cc1ccc(NC(=O)CCc2nnc3ccc(N4CCN(C)CC4)nn23)cc1F,active: 25.1 µM,
CC(C)CC(=O)NC(=S)Nc1sc2c(c1C(N)=O)CCC2,"inconclusive: 39.8 µM [activator, single point]",
CCOCCCNc1nc2ccccc2n2c(CC)nnc12,"inconclusive: 25.1 µM [activator, partial curve]",
O=c1cc(C(F)(F)F)nc(SC/C=C/c2ccccc2)[nH]1,,inactive: 1.29%
CCn1ccnc1CN(C)C(=O)C1CCC(=O)N(CCc2cccc(F)c2)C1 (stereo unspecified),,inactive: 1%
COCCn1c(SCC(=O)Nc2sc(C)c(C)c2C#N)nnc1C(C)C,,inactive: 0.762%
Cc1cccc(N(Cc2cc3ccccc3[nH]c2=O)C(=O)c2cccc(Cl)c2)c1,"inconclusive: 35.5 µM [activator, single point]",
